Here are results for 30 compounds from the antibiotic and cytotoxicity screens of Wong et al. (2023).

Some of the results follow.

The first experiment relates to HSkMC (human skeletal muscle cells). The experiment in a line: cytotoxicity call (relative viability < 0.9). Particulars: 10 µM.
As for `C[C@@H]1CN([C@@H](C)CO)C(=O)Cc2cc(NS(=O)(=O)c3ccc(Cl)cc3)ccc2O[C@@H]1CN(C)C`, the cytotoxicity call is “inactive”.
The same measure, in the same setting: as for `CCNC(=O)C[C@H]1CC[C@H]2[C@H](COc3ccc(NS(=O)(=O)c4ccccc4C)cc3C(=O)N2C)O1`, the entry is “inactive”; as for `C[C@H]1CN([C@@H](C)CO)C(=O)c2cccc(NC(=O)c3cnccn3)c2O[C@H]1CN(C)C(=O)Nc1ccc2c(c1)OCO2`, “inactive”.
Same read-out and setting: next, `COC(=O)[C@@H]1CC(=O)O[C@H](C)C/C=C/C=C/[C@H](O)[C@H](C)C[C@H](CC=O)[C@H](O[C@H]2O[C@H](C)[C@@H](O[C@H]3C[C@@](C)(O)[C@@H](OC(=O)CC(C)C)[C@H](C)O3)[C@H](N(C)C)[C@H]2O)[C@H]1OC`: “inactive”; `O=C(C[C@@H]1C=C[C@H](NC(=O)c2ccc(F)cc2)[C@H](CO)O1)NCc1ccncn1`: “inactive”.
Same read-out and setting: next, `C[C@@H]1CN([C@H](C)CO)C(=O)c2cc(NC(=O)Nc3ccccc3)ccc2O[C@@H]1CN(C)C(=O)Nc1cccc2ccccc12`: “active”; `COCCN1CCNCC1`: “inactive”.

The subject of another experiment is HepG2. The experiment in a line: cytotoxicity call (relative viability < 0.9). The settings on record: 10 µM.
As for `CCCCOc1ccc([C@@H]2c3c(oc4ccc(Br)cc4c3=O)C(=O)N2CCCN2CCOCC2)cc1`, the cytotoxicity call was “inactive”.
Consider `CC1=CC(=O)[N-]S(=O)(=O)O1.[K+]`, for which the cytotoxicity call was “inactive”.
Take `C[C@H]1CN([C@@H](C)CO)C(=O)c2cc(NC(=O)CCN3CCOCC3)ccc2O[C@H]1CN(C)Cc1ccncc1`: the cytotoxicity call was “inactive”.
As to `Cc1cc(C)n(-c2n[nH]c(=S)n2N)n1`, the cytotoxicity call was “inactive”.
As for `C[C@@H]1CN([C@H](C)CO)C(=O)c2cccc(NC(=O)c3cnccn3)c2O[C@H]1CN(C)S(=O)(=O)c1cccs1`, the cytotoxicity call was “inactive”.
The same measure, in the same setting: as for `CC(C)NC(=O)N(C)C[C@H]1Oc2ccc(NC(=O)Nc3ccc4c(c3)OCO4)cc2C(=O)N([C@H](C)CO)C[C@H]1C`, the entry is “inactive”; as for `C[C@@H]1CCCCO[C@H](CN(C)Cc2ccc(C(F)(F)F)cc2)[C@H](C)CN([C@H](C)CO)C(=O)c2cc(NS(=O)(=O)c3cccs3)ccc2O1`, “active”; as for `Cn1cncc1[C@@](N)(c1ccc(Cl)cc1)c1ccc2c(c1)c(-c1cccc(Cl)c1)cc(=O)n2C`, “active”.
Still for that read-out and setting: as for `C[C@@H]1CN([C@@H](C)CO)C(=O)Cc2cc(NC(=O)Cc3ccccc3)ccc2O[C@@H]1CN(C)Cc1ccc(Oc2ccccc2)cc1`, the entry is “active”; as for `C[C@H]1CN([C@@H](C)CO)C(=O)CCCn2cc(nn2)CO[C@@H]1CN(C)S(=O)(=O)c1ccc2ccccc2c1`, “inactive”; as for `Cc1ccc(-c2ccc3c(c2)O[C@@H](CN(C)Cc2cncnc2)[C@H](C)CN([C@@H](C)CO)S3(=O)=O)cc1`, “inactive”.
With `C[C@H](CO)N1C[C@H](C)[C@H](CN(C)Cc2ccc(C(F)(F)F)cc2)Oc2ccc(NC(=O)Nc3ccc(F)cc3)cc2C1=O`, the cytotoxicity call was “inactive”.
Still for that read-out and setting: as for `C[C@@H]1CN([C@@H](C)CO)C(=O)c2cc(NS(=O)(=O)c3cccs3)ccc2O[C@H]1CN(C)S(=O)(=O)c1cccs1`, the entry is “inactive”.
With `C[C@H](CO)N1C[C@H](C)[C@@H](CN(C)C(=O)Nc2ccc(F)cc2)OCCCC[C@H](C)Oc2ccc(NC(=O)CCC(F)(F)F)cc2C1=O`, the cytotoxicity call is “inactive”.
As to `C[C@@H]1CN([C@@H](C)CO)C(=O)c2cc(NC(=O)Nc3ccc(F)cc3)ccc2O[C@@H](C)CCCCO[C@H]1CN(C)C(=O)c1ccccc1`, the cytotoxicity call is “inactive”.
`O=C(C[C@H]1C[C@H]2c3cc(NC(=O)Nc4ccc(C(F)(F)F)cc4)ccc3O[C@H]2[C@H](CO)O1)NCc1cc(F)ccc1F`: the cytotoxicity call is “inactive”.
Same read-out and setting: next, `COc1cccc(OCc2ccc(Cn3nc(NC(=O)Nc4c(OC)cccc4OC)c4ccccc43)cc2)c1`: “inactive”; `N=C(N)/N=C(\N)N1CCOCC1`: “inactive”.
As for `O=C(C[C@H]1CC[C@H]2[C@@H](COC[C@@H](O)CN2S(=O)(=O)c2ccccc2)O1)NCCN1CCCCC1`, the cytotoxicity call is “inactive”.
Still for that read-out and setting: as for `CC(C)NC(=O)N(C)C[C@H]1OCc2cnnn2CCCC(=O)N([C@H](C)CO)C[C@@H]1C`, the entry is “inactive”.
For the compound `C[C@@H]1CCCCO[C@H](CN(C)S(=O)(=O)c2ccc(F)cc2)[C@H](C)CN([C@H](C)CO)C(=O)c2cc(NC(=O)Nc3cccc4ccccc34)ccc2O1`, the cytotoxicity call was “inactive”.
Same read-out and setting: as for `C[C@H]1CCCCO[C@H](CN(C)C(=O)Cc2ccccc2)[C@@H](C)CN([C@@H](C)CO)C(=O)c2cc(NS(=O)(=O)c3ccc(Cl)cc3)ccc2O1`, the entry is “inactive”.
As to `CC(=O)NCCCC[C@@H]1NC(=O)[C@H]2C[C@@H](C(=O)NCc3ccc(F)cc3)[C@@H](c3ccc(O)cc3)N2C1=O`, the cytotoxicity call was “inactive”.
